# Results: the supplement of paper PMC4166925
# ± gives the standard deviation of the averaged measurements. In all, about 33,000 sequences were measured (“E-score (dimensionless, -0.5 to 0.5)”: median about -0.046, highest 2% from about 0.36 on). This is one part of the list.
# System: T1, SpTbr T-box DNA-binding domain (GST fusion)
# T1 sequence: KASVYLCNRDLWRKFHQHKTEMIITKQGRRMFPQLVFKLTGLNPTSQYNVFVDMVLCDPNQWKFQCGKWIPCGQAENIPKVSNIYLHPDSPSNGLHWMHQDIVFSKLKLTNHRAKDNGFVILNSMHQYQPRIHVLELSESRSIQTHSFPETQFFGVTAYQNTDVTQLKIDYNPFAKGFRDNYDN
# Assay: PBM E-score of 8-mer (E-score (dimensionless, -0.5 to 0.5)); Tbr is Tbrain of the sea star Patiria miniata (Pm) or the sea urchin Strongylocentrotus purpuratus (Sp); higher = stronger binding preference; most listed sequences are background and not binding sites
# Settings: the construct has about 5 more residues each side
# Procedure: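 Universal protein-binding microarray (Agilent AMADID 016060, 60-bp probes with a 35-bp variable region) incubated with 200 nM GST-fused Strongylocentrotus purpuratus Tbr T-box DNA-binding domain (residues 362-554) in PBS pH 7.5. Scored for every ungapped 8-mer (given with its reverse complement) as E-score (range -0.5 to 0.5; >0.45 counts as bound) and Z-score of median probe intensity. Two replicate arrays (datasets 1 and 2).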
# 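Also: protein at 200 nM in PBS on universal double-stranded arrays.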
row,Sequence,PBM E-score of 8-mer
1,GCCCCAGC,-0.145 ± 0.059
2,AAGTTCCC,-0.19 ± 0.011
3,AGGACTTG,-0.184 ± 0.0089
4,GCGAAGGA,0.12 ± 0.0058
5,ACGAGCGT,0.0712 ± 0.013
6,CGTCTGGA,-0.0646 ± 0.015
7,AGCCATGC,-0.214 ± 0.056
8,AGATGGGG,-0.048 ± 0.029
9,AACTTAGA,-0.1177 ± 0.0005
10,GGATCCTA,-0.166 ± 0.017
11,AGCTTTAT,-0.108 ± 0.053
12,AAATAGCA,0.199 ± 0.012
13,GACATTGA,-0.000185 ± 0.12
14,CCATCCAG,-0.0893 ± 0.03
15,CTCGCGGA,0.143 ± 0.14
16,ATTTCCAA,-0.13 ± 0.0086
17,AGCTCACA,0.23 ± 0.0052
18,CACTAGAC,0.107 ± 0.028
19,ACTGCTAA,0.193 ± 0.1
20,ATAGTGCA,-0.0294 ± 0.065
21,CCAACCGA,0.0295 ± 0.059
22,AGGCCCCA,-0.0759 ± 0.14

row,Sequence,PBM E-score of 8-mer
1,GATGCAGA,-0.0881 ± 0.054
2,CTAACGAG,0.15 ± 0.033
3,CCTGAACG,-0.068 ± 0.015
4,ACACACAA,0.148 ± 0.02
5,CGAGCGCC,-0.0102 ± 0.18
6,AGCTGAGG,0.0408 ± 0.035
7,CGAGGACC,0.0112 ± 0.036
8,CCGGTTCG,0.0166 ± 0.091
9,ACCCCTAA,-0.111 ± 0.012
10,ACAAAGGT,0.119 ± 0.0064
11,ACAAACGT,0.0139 ± 0.022
12,CGCGTTAC,0.127 ± 0.0069
13,GACCTAGA,-0.223 ± 0.017
14,CATAACGG,-0.0574 ± 0.062
15,GTTAAAAC,0.239 ± 0.028
16,TTCTAAAA,-0.167 ± 0.011
17,ATAATGCC,-0.199 ± 0.041
18,TACTCTGA,-0.25 ± 0.034
19,CATTTCCC,-0.0373 ± 0.0013
20,CGTCCTAA,-0.188 ± 0.032
21,GCGTGCAC,0.0755 ± 0.032
22,ATGTCTAC,-0.243 ± 0.011

row,Sequence,PBM E-score of 8-mer
1,AAAAAACT,-0.169 ± 0.046
2,GATACATC,0.0657 ± 0.038
3,ATGTTGGA,-0.0349 ± 0.065
4,GCTTTCCA,-0.122 ± 0.037
5,GGTTTTCA,-0.0937 ± 0.091
6,AAGATGCC,-0.086 ± 0.038
7,CTCCAAAG,-0.0265 ± 0.11
8,AGGGGAAC,-0.203 ± 0.014
9,ACTTTAGC,0.0902 ± 0.074
10,CCTACTCG,-0.0254 ± 0.027
11,CATAAACC,-0.154 ± 0.017
12,AGGTATGG,-0.189 ± 0.052
13,AGGCCGAG,-0.00279 ± 0.03
14,TGGCTGAA,-0.117 ± 0.0019
15,ATGTCGGG,-0.00289 ± 0.027
16,CAGATCGA,-0.12 ± 0.014
17,AACACTAA,0.247 ± 0.029
18,AACAACTG,0.206 ± 0.046
19,GGAAATGA,-0.187 ± 0.048
20,GATAAGGA,-0.146 ± 0.046
21,AATCACGT,0.118 ± 0.0071
22,CGCTAGCA,0.205 ± 0.012

row,Sequence,PBM E-score of 8-mer
1,GCACGAAC,0.0476 ± 0.034
2,GGAATCAC,0.0517 ± 0.012
3,CCATCTAA,-0.174 ± 0.059
4,AGAGCACG,-0.126 ± 0.039
5,AAATTAAG,-0.388 ± 0.021
6,CTATAACC,0.073 ± 0.07
7,CCATGCGG,-0.174 ± 0.044
8,AGTTATTA,0.227 ± 0.028
9,CTTCCTGC,-0.108 ± 0.004
10,CAGTGCTA,0.159 ± 0.0028
11,GTCATGCA,-0.182 ± 0.042
12,CCCCCACG,-0.104 ± 0.021
13,ACATCGGA,0.0649 ± 0.018
14,AGCCTGTG,0.0745 ± 0.026
15,ATCTCTAC,-0.113 ± 0.076
16,CACTGCCG,0.0182 ± 0.06
17,GACTTTAA,-0.226 ± 0.063
18,ACCTTGTG,0.238 ± 0.04
19,ATAACAAA,0.0503 ± 0.031
20,AGACAGGG,-0.112 ± 0.013
